According to PubChem BioAssay AID1508623 (National Center for Advancing Translational Sciences (NCATS), 2021):
Out of some 48,000 compounds screened, about 450 (0.94%) were called active. Inconclusive results (about 19%) are left out. Calls come from the whole dose curve; as a rule, active = well fitted inhibition curve with a large enough effect; inconclusive = small, poorly fitted or top-dose-only effect; inactive = no such curve, though single readings can be large or run the other way. The list shows a part of the results.

Test: Primary qHTS for Identification of Small Molecule Inhibitors of Huntingtin Promoter Activity; note: nearly all actives have a fitted effect of over 50% in size
Conditions: HEK293 HTT promoter firefly luciferase reporter (activity 0% = vehicle and -100% = no light), 24 h; series mostly up to 57.5 µM; activity change, negative = inhibition: at the top concentration
Method in brief: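 HEK293 luciferase promoter-reporter cells (2,500/well) plated 24 h, then compounds added at up to 57.5 uM final for 24 h at 37 °C. Firefly luminescence by Dual-Glo, normalized to vehicle (0%) and zero RLU (-100%).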
Potency is the fitted concentration of half-maximal effect.

Activity change, negative = inhibition, inactive:
CCOC(=O)C1CCCN(Cc2cn3c(-c4ccc(Br)cc4)nnc3s2)C1 (stereo unspecified) -11.5%
CCOc1ccc(NC(=O)Cc2ccc(-n3c(C)nc4cccnc43)cc2)cc1 -14.2%
CC(=O)N1CCC(N(Cc2ccco2)C(=O)Nc2ccc(Br)cc2F)CC1 -0.482%
Cc1ccc(NC(=O)CN2C(=O)c3ccccc3Sc3ccc(C(=O)N4CCCC4)cc32)cc1 8.66%
CCN(CC)CCNC(=O)c1[nH]c2ccccc2c1Sc1ccc(Cl)cc1 -25.8%
COc1ccc(NC(=O)C(NC(=O)/C=C\c2ccc3c(c2)OCO3)c2ccc(OC)cc2)cc1 (stereo unspecified) -23%
COC(=O)c1c(NC(=O)COc2c(C)ccc(C)c2C)sc2c1CCC(C)C2 (stereo unspecified) -3.81%
CC1=C(C(=O)Nc2cccnc2)C(c2ccc(Cl)cc2)n2nc(SCc3ccccc3)nc2N1 (stereo unspecified) -5.4%
CCN(CC)c1cc2c(cc1F)c(=O)c(S(=O)(=O)c1ccc(C)cc1)cn2Cc1ccc(F)cc1 -7.42%
CCOc1ccc(NC(=O)[C@H](Cc2ccccc2)N2Cc3ccccc3C2=O)cc1 -16.8%
O=C(Cn1ncc2ccsc2c1=O)N1CCN(c2ccccc2)CC1 2.52%
CCCSc1nc2c(c(=O)[nH]1)C(c1ccc(F)cc1F)CC(=O)N2 (stereo unspecified) -17.7%
CCCN1CCN(c2ncnc3sc(C(=O)Nc4cccc(Cl)c4C)c(C)c23)CC1 -23%
CCC1CCc2nc3sc(C(=O)Nc4ccc(F)c(F)c4)c(N)c3cc2C1 (stereo unspecified) 12.9%
COc1ccc(NC(=O)CSc2nc3c(c(=O)[nH]2)CCC3)cc1 -10.8%
CC(C)c1ccccc1Oc1c(C(F)(F)F)oc2c(CN3CCN(C)CC3)c(O)ccc2c1=O -24.1%
CCOc1ccccc1Nc1sc(C(=O)c2ccc(Cl)cc2)c(N)c1C(=O)NCCc1ccccc1 -14.6%
O=C(Cn1c(=O)n(CCc2ccccc2)c(=O)c2c3c(sc21)CCCC3)Nc1ccc(F)c(F)c1 2.59%
CCCc1nnc(NC(=O)Cc2coc3ccc(C)cc23)s1 -0.392%
Cc1ccccc1NC(=O)CSc1nc2ccccc2c2nc(CCn3c(C)nc4ccccc43)nn12 0%
Cc1ccc(CNC(=O)c2cn(C)c3ccc(S(=O)(=O)N4CCOCC4)cc3c2=O)cc1 -4.36%
COc1ccccc1N1CCN(C(=O)c2cc3c(=O)oc4ccc(C)cc4c3s2)CC1 -18.4%
CCOc1ccc(-c2nc(CNC(=O)Nc3ccccc3)c(C)o2)cc1 -12.6%
COc1cc(NC(=O)c2nn(-c3ccc(F)cc3)c(=O)n(C)c2=O)cc(OC)c1OC -6.95%
CCn1c(C(=O)N2CCC(C(=O)NCCCOC)CC2)cc2sccc21 9.22%
O=C(COCc1cc(-c2cccs2)on1)NCc1cccc(Cl)c1 -11.6%
CC(C(O)c1ccc(O)cc1)N1CCC(Cc2ccccc2)CC1 (stereo unspecified) 3.04%
Cc1cn(S(=O)(=O)c2ccc(F)c(Cl)c2)cn1 1.6%
O=C(CCSCc1ccccc1Cl)N1CCN(c2ccc(F)cc2)CC1 -20.7%
CC(Oc1ccccc1)C(=O)N1CCN(Cc2cc(=O)n3nc(-c4ccccc4Cl)sc3n2)CC1 (stereo unspecified) -26.7%
CCc1ccc(C(=O)c2cn(CC(=O)Nc3ccc4c(c3)OCCO4)c3ccc(C)cc3c2=O)cc1 -11.4%
CC(=O)c1ccc(NC(=O)COc2ccccc2-c2nc(-c3ccccc3)no2)cc1 -11%
COCc1cc(C)nc2sc3c(c12)NC(c1ccccc1C(=O)O)N(c1ccc(OC)cc1)C3=O (stereo unspecified) 17.4%
O=c1c2c3c(sc2n(Cc2cc(=O)n4ccccc4n2)c(=O)n1-c1ccccc1)CCC3 11.1%
Cc1ccc(C)c(NC(=O)c2nnn(CC(=O)Nc3cccc(C)c3C)c2N)c1 -11.3%
O=c1cc(CN2CCN(S(=O)(=O)c3ccccc3)CC2)nc2sc(-c3ccccc3Cl)nn12 -7.39%
Cc1ccc(NC(=O)C(Cc2ccccc2)NS(=O)(=O)c2cccs2)cc1Cl (stereo unspecified) -0.353%
O=C(CS(=O)(=O)c1nc(-c2ccc(Cl)cc2)cn1-c1ccccc1)Nc1ccc(F)cc1F -4.86%
COc1ccccc1CNC(=O)CN1C(=O)c2cccnc2Oc2ccccc21 2.16%
Cc1ccc(-c2noc(CSc3nnc(C)n3-c3ccc(C)cc3)n2)cc1 -27.7%
COc1ccc(OCCSc2nc3ccccc3n2CC(=O)N2CCOCC2)cc1 -15.3%
COc1ccc(NC(=O)CCCc2nnc3n(CCC(C)C)c(=O)c4sccc4n23)cc1Cl -28.3%
CCOc1ccc(CNC(=O)C2CCN(C(=O)c3sccc3-n3cccc3)CC2)cc1 -24.9%
Cc1ccc(-n2c(SCCC(C)C)nc3sc4c(c3c2=O)CC(C)(C)OC4)cc1 -14.1%
COc1ccc(-c2cc(C(C)=O)c(C)n2CCC(=O)NC2CCCCC2)cc1 -13.3%
CCOc1ccc(CNC(=O)CN2C(=O)C3CCCCN3c3ccc(C(=O)N4CCCC4)cc32)cc1 (stereo unspecified) 0.571%
CC(C)Oc1ccc(C(=O)N2CC(=O)Nc3ccc(F)cc3C2c2ccc(F)cc2)cc1 (stereo unspecified) -26.6%
COCCNc1ncnc2onc(-c3ccc(F)cc3)c12 -6.17%
O=C(O)CCc1ccc(-c2cccs2)n1CC(=O)Nc1ccccc1C(F)(F)F -13.4%
O=C(CSc1nc(-c2ccccc2)nc2c1CCCC2)c1ccc(Cl)cc1 -6.36%
CN1CCN2c3ncccc3Cc3ccccc3C2C1 (stereo unspecified) -6.97%
CCc1cccc(C)c1NC(=O)C(CC)n1ncn2c(cc3cc(C)ccc32)c1=O (stereo unspecified) -13%
CCOc1ccc(CNC(=O)c2cnc3sc(N4CCCCCC4)nn3c2=O)cc1OC 11.9%
Cc1ccc(S(=O)(=O)c2nc(S(=O)(=O)c3ccc(C)cc3)c(NC(C)C)s2)cc1 -15.6%
Cc1ccc(C)c(NC(=O)Cn2c(=O)n(Cc3ccc4c(c3)OCO4)c(=O)c3ccc(C(=O)NC4CCCCC4)cc32)c1 2.86%
Cc1ccc2c(c1)CC(C)N2S(=O)(=O)c1nnc(NC(=O)C(C)C)s1 (stereo unspecified) -17.6%
Cc1cccc(NC(=O)C2CCN(S(=O)(=O)c3ccc4c(c3)CCCC(=O)N4)CC2)c1 -18.4%
CCCNC(=O)C1CCC(Cn2c(=O)c3sccc3n(CC(=O)Nc3ccccc3C)c2=O)CC1 (stereo unspecified) -3.73%
COc1ccc(-c2cc(C(F)(F)F)nc(SCCC(=O)Nc3cccc(O)c3)n2)cc1 4.14%
Cc1cc(=O)n(CC(=O)Nc2cccc([N+](=O)[O-])c2)c(-n2nc(C)cc2C)n1 -21.9%
CC(NC(=O)c1ccc2nc(Cc3ccccc3)oc2c1)c1ccccc1 (stereo unspecified) -19.5%
COC(=O)c1c(NC(=O)c2cc3nc(-c4ccc(Br)cc4)cc(C(F)(F)F)n3n2)sc2c1CCCC2 -7.08%
COc1ccc(OC)c(NC(=O)N2CCC(N3CCN(Cc4ccc(F)cc4)C(=O)C3=O)CC2)c1 -21.4%
CCc1ccc(Nc2cc(C(=O)NCCCN(C)c3ccccc3)c3ccccc3n2)cc1 1.35%
COc1ccc(NC(=O)Cn2cc(C(=O)C3CCCCC3)c3ccccc32)cc1 -21.2%
COc1ccc(Cl)cc1NC(=O)N1CCC(CN2CCCCCC2)CC1 -10.5%
Cc1cccc(Cn2cc(C(=O)Nc3ccc(S(N)(=O)=O)cc3)ccc2=O)c1 -1.2%
CCCCNC(=O)CN1C(=O)COc2ccc(S(=O)(=O)N3CCCC3)cc21 -8.28%
COc1ccc(CNC(=O)CN2C(=O)CSc3ccc(S(=O)(=O)N4CCCC4)cc32)cc1 -5.18%
CC1=C(C(=O)OCC2CCCCC2)C(c2ccc(Cl)cc2Cl)CC(=O)N1 (stereo unspecified) -14.7%
CSc1cccc(NC(=O)Cn2cnc(S(=O)(=O)N3CCCC3)c2)c1 -20.7%
O=C(Nc1ccccc1OCc1cc(=O)n2ccccc2n1)c1ccccc1F 6.81%
CCCn1c2ccccc2c2cnn(CC(=O)NCc3cc(OC)ccc3OC)c(=O)c21 5.53%
COC(=O)c1ccc(Cn2nnc3sc4c(c3c2=O)CCCC4)cc1 26.9%
COc1cc2nc(Nc3ccc(F)cc3)nc(N)c2cc1OC -8.09%
COc1ccc(NC(=O)CN(C)S(=O)(=O)c2cccc3nsnc23)cc1 -6.34%
COC(=O)N/N=C/c1c[n+]([O-])c2ccccc2[n+]1[O-] 7.42%
CCN(CC)c1ccc(NC(=O)c2cc3c(=O)n4cccc(C)c4nc3n2C)c(C)c1 0.0321%
Cc1cc(S(=O)(=O)NCC(c2ccc(N(C)C)cc2)N2CCOCC2)ccc1F (stereo unspecified) -3.58%
O=C(CSC1=Nc2ccccc2N=C(c2ccc(F)cc2)C1)NCc1ccc(Cl)cc1 -27.3%
CN(C(=O)CN(CCO)CC(=O)N(C)C(C)(C)Cc1ccccc1)C(C)(C)Cc1ccccc1 -10.7%
CCn1nc(C)c2c(-c3ccccc3)cc(=O)n(C(C)C(=O)NCc3ccc(C)cc3)c21 (stereo unspecified) -23%
CC(=O)c1ccc(NC(=O)c2nc3ccccc3n(C)c2=O)cc1 60.9%
CCCCCNC(=O)CCn1c(=O)[nH]c2ccccc2c1=O -12.8%
Cc1[nH]c(=O)[nH]c(=O)c1S(=O)(=O)N1CCN(c2cccc(Cl)c2)CC1 -1.1%
Cc1ccc(CN(C(=O)COc2ccc(Cl)cc2Cl)C2CCS(=O)(=O)C2)o1 (stereo unspecified) -17.7%
Cc1ccc(C)c(CN2C(=O)CSc3ccc(C(=O)NCCc4ccc(Cl)cc4)cc32)c1 -10.1%
CCCNC(=O)Cn1nc(-c2ccc(C)c(C)c2)c2cnc3ccc(F)cc3c21 -10.2%
O=C(Nc1cccc(C(F)(F)F)c1)Nc1nnc(N2CCCCC2)s1 3.18%
N#Cc1c(Nc2cccc(F)c2)sc(C(=O)c2ccc(Cl)cc2)c1N 4.05%
CCN(c1ccccc1)S(=O)(=O)c1ccc2[nH]cc(C(=O)NCc3ccc(C)cc3)c(=O)c2c1 -0.326%
Cc1cc(C)nc(NS(=O)(=O)c2ccc(N)cc2)n1 5.83%
COc1ccc(N2CC(NC(=O)c3ccc(OC(C)C)cc3)CC2=O)cc1 (stereo unspecified) -13.9%
COc1ccccc1CNC(=O)CN1C(=O)CCn2nc(-c3ccccc3)cc21 -20.7%
Cc1ccc(OCC(=O)Nc2ccc3nc(Nc4cccc(Cl)c4)cc(C)c3c2)cc1 -3.17%

Potency, active:
Cc1ccccc1NC(=O)c1c(NC(=O)C(F)(F)F)sc2c1CCCCC2 2 µM
